According to PubChem BioAssay AID1030 (National Center for Advancing Translational Sciences (NCATS), 2008):
In all, about 220,000 compounds went through this assay and about 16,000 (7.3%) were called active. Inconclusive means that the source gave no clear call. Such entries were picked first, then a sample of the others. Calls follow the shape of the dose curve; as a rule, active = well fitted inhibition curve with a large enough effect (not every such curve was filed as active); inconclusive = small, poorly fitted or top-dose-only effect, or another doubt; inactive = no such curve, though single readings can be large or run the other way. Potencies of inconclusive entries are doubtful fits and often do not repeat.

biological target: Aldehyde dehydrogenase 1A1 (Homo sapiens) (UniProt P00352); assay: qHTS Assay for Inhibitors of Aldehyde Dehydrogenase 1 (ALDH1A1); details: Purified ALDH1A1, NADH fluorescence, propionaldehyde substrate; series mostly up to 75.3 µM;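 as to activity, negative = inhibition: plate controls were no enzyme wells and a reference inhibitor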
Sequence of UniProt P00352 (P00352 whole entry, looked up): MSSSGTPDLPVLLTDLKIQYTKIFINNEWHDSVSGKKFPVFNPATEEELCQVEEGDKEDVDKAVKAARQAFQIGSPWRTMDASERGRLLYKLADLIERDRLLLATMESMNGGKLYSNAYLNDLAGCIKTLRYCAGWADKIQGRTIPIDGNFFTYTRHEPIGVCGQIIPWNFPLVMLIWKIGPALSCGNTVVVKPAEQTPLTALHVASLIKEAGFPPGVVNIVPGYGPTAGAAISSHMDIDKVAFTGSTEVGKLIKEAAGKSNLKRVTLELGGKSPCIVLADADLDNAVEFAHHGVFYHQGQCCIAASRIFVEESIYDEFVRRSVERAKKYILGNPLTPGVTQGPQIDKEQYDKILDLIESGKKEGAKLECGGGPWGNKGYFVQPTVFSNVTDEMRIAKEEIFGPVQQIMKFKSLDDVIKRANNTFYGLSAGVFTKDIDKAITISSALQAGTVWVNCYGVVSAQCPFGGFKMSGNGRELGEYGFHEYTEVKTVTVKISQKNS
Potency is read from the fitted curve at half-maximal effect; tags tell the direction and shape of the fitted curve.

Potency, active:
COc1ccc(C(C)=O)cc1COC(=O)CCCN1C(=O)c2ccccc2C1=O 3.55 µM

Potency, inconclusive:
O=c1cc(O)n(-c2ccccc2)c(=S)[nH]1 39.8 µM [inhibitor, single point], CC(=O)Nc1nnc(SCC(=O)N2CCN(Cc3ccccc3)CC2)s1 20 µM [inhibitor, partial curve], COc1ccc(NC(=O)c2nc(C)n(-c3ccc([N+](=O)[O-])cc3)n2)cc1 25.1 µM [inhibitor, single point], N#CCCn1c(=O)c(-c2cccc(C#N)c2)nc2cnc(Oc3cccc(Cl)c3)nc21 28.2 µM [inhibitor, partial curve], Cn1ccs/c1=N\S(=O)(=O)c1ccc(C(C)(C)C)cc1 31.6 µM [inhibitor, single point], CCOc1ccc(Cc2n[nH]c(=S)n2N)cc1 39.8 µM [inhibitor, single point], CC1(C)CC(C(CC(=O)Nc2nccs2)c2ccccc2)CCO1 (stereo not given) 22.4 µM [inhibitor, single point], CNC(=S)N/N=C(\C)c1ccc2c(c1)OCO2 2.51 µM [inhibitor, full curve], Cc1c(C(=O)N(Cc2ccccc2)Cc2cccs2)cnn1-c1ccc(Cl)cc1 14.1 µM [inhibitor, partial curve], CCNc1ccc(Br)cc(C(=O)/C=C/c2ccc(Cl)cc2Cl)c1=O 7.94 µM [inhibitor, partial curve], CC(=O)n1cc([C@H]2C=C(C(=O)O)O[C@@H](OCCCCO)C2)c2ccccc21 39.8 µM [inhibitor, single point], Cc1cccc(OCCCC(=O)Nc2ccc(N(C)C)cc2)c1 35.5 µM [inhibitor, single point], Cc1cc(=O)oc(C)c1C(=O)NCCCN1CCN(c2ccc(F)cc2)CC1 28.2 µM [inhibitor, partial curve, poor fit]

Potency, inactive:
N[C@@H](C(=O)O)c1cc(O)ccc1Cl, Cc1nn(-c2ccccc2)c(C)c1NS(=O)(=O)c1ccccc1, O=C(NCc1cccc(Cl)c1)c1cccnc1, COCCNc1ccc(N2C(=O)CCCC2=O)cc1[N+](=O)[O-], CCOC(=O)N1CCN(C(=S)Nc2cc(OC)c(OC)cc2C(=O)OC)CC1

activity, negative = inhibition, inactive:
O=c1cc(CF)[nH]c(=S)[nH]1 -13.2% [at 13.5 µM]
